Read-outs that look alike come from different tables or passages of the source. These are yes or no findings as the source states them, for the method shown. In cells and extracts the contact can be indirect. Some results given as binding are weak or reduced against the parent protein; the word gives no strength. For some assays here: Sequences can lack the tags named with a protein.
Tests used:
GST-GATE16 = GST-GATE16 (UniProt P60520); assay: pull-down; GST-fusion proteins on glutathione-Sepharose beads incubated with whole cell lysates of transfected HEK293T cells for 12 h at 4 °C; washed five times with PBS; immunoblot with anti-GFP or anti-Flag; only the target purified
GFP-TRPML3 = biological target: T1, GFP-TRPML3 (UniProt Q8TDD5); assay: co-IP; lysates of transfected HEK293T cells (50 mM HEPES, 150 mM NaCl, 2 mM MgCl2, 1% Triton X-100); anti-GFP antibody, protein A agarose, 4 °C; washed with 0.5% Triton X-100 in PBS; probed with anti-Flag; in some panels cells fed or serum-starved 2 h, or lysate with vehicle or 0.5 mM GTP
T1 sequence: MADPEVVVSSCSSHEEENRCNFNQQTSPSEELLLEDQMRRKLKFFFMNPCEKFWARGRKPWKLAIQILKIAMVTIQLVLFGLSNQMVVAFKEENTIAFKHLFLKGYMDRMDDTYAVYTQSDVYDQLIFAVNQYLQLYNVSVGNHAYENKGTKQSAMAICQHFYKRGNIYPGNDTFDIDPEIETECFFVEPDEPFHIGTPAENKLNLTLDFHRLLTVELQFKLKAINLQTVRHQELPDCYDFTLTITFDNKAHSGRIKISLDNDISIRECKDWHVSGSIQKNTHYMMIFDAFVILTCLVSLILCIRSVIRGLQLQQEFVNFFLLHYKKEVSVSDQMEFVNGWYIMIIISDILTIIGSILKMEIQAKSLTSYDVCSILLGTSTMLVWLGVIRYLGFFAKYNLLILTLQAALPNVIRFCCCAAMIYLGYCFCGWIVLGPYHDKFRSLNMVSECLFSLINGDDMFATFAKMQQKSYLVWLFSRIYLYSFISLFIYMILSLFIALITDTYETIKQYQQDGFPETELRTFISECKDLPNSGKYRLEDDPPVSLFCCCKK

Protein sequences, listed by entry. Tags and fused reporters are not part of them. Lines headed by an entry give the natural chain unless they say otherwise; changes in a name come on top.
UniProt P60520: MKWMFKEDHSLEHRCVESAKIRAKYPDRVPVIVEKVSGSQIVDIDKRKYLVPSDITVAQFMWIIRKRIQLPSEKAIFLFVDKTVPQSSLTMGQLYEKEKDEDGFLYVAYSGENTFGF
UniProt O95166: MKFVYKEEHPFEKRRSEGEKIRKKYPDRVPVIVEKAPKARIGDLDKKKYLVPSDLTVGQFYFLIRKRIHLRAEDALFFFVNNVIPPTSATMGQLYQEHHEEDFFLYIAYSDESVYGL
UniProt Q9H082: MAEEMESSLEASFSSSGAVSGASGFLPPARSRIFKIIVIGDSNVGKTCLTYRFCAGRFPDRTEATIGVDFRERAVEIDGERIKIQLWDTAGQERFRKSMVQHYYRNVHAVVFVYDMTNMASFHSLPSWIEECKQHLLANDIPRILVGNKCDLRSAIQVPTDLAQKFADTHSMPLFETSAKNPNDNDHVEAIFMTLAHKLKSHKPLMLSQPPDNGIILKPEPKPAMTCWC

GFP-GATE16 [1] = biological target: GFP-GATE16 (UniProt P60520); assay: as above
GST-LC3A (human) = GST-LC3A (human) (UniProt Q9H492); assay: pull-down; GST-fusion proteins on glutathione-Sepharose beads incubated with whole cell lysates of transfected HEK293T cells for 12 h at 4 °C; washed five times with PBS; immunoblot with anti-GFP or anti-Flag; only the target purified
GST-GABARAP (human) = GST-GABARAP (human) (UniProt O95166); assay: as above
[2] = biological target: T2, TRPML3 (endogenous) (human (endogenous in HEK293T)) (UniProt Q8TDD5); assay: co-IP; endogenous proteins: HEK293T lysates precipitated with control IgG or anti-TRPML3 antibody, probed with anti-RAB33B antibody
T2 sequence: T1 sequence

GFP-RAB33B (human) = GFP-RAB33B (human) (UniProt Q9H082); assay: co-IP; lysates of transfected HEK293T cells (50 mM HEPES, 150 mM NaCl, 2 mM MgCl2, 1% Triton X-100); anti-GFP antibody, protein A agarose, 4 °C; washed with 0.5% Triton X-100 in PBS; probed with anti-Flag; in some panels cells fed or serum-starved 2 h, or lysate with vehicle or 0.5 mM GTP
GFP-GATE16 [3] = biological target: GFP-GATE16 (UniProt P60520); assay: as above; remark: listed apart in the source
GFP-RAB33B(Q92L) (human) = GFP-RAB33B(Q92L) (human) (UniProt Q9H082); assay: as above
GFP-RAB33B(T47N) (human) = GFP-RAB33B(T47N) (human) (UniProt Q9H082); assay: as above

## Flag-RAB33B (from UniProt Q9H082 1-229)
GST-GATE16
  binding: binds
GFP-TRPML3
  binding: binds
GFP-GATE16 [1]
  binding: binds

## Flag-RAB33B(Y104A, V107A) (from UniProt Q9H082 1-229)
GST-GATE16
  binding: no binding
GFP-TRPML3
  binding: binds weakly

## GFP-TRPML3 (from UniProt Q8TDD5 1-553)
GST-LC3A (human)
  binding: binds
GST-GATE16
  binding: binds
GST-GABARAP (human)
  binding: binds

## RAB33B (endogenous) (from UniProt Q9H082 1-229)
[2]
  binding: binds

B1: Flag-TRPML3 (protein, UniProt Q8TDD5 1-553)
chain: T1 sequence
GST-GATE16
  binding: binds
GFP-RAB33B (human)
  binding: binds
GFP-GATE16 [3]
  binding: binds
GFP-RAB33B(Q92L) (human)
  binding: binds
GFP-RAB33B(T47N) (human)
  binding: binds

Source: paper PMC12378212
